Test [1] has as its target T1, recombinant human FcRn (Sino Biological) (human, UniProt P55899 partial chain; P61769 partial chain). Nature of the test: ELISA at pH 6.0: plate coated with recombinant human FcRn, antibody titrated, HRP goat anti-human Fc, OD650.
In test [2] the target is T2, human C1q (sigma Cat #C1740) (human, UniProt P02745; P02746; P02747). Nature of the test: ELISA: plate coated with antibody at 1 ug/ml, human C1q titrated 0.625-40 ug/ml, rabbit anti-human C1q then HRP goat anti-rabbit, OD650.
Test [3] addresses T3, FcγRIIa (CD32) (Sino Biological, cat #10374-H08H) (UniProt P12318 34-218).
T3 sequence (looked up): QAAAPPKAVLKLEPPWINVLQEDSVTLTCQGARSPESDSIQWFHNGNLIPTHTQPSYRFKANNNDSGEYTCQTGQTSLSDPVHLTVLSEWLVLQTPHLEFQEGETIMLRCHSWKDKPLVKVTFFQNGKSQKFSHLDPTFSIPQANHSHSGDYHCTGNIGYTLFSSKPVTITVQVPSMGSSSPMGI
Nature of the test: Sandwich ELISA: anti-His capture of His-tagged FcγRIIA mixed with titrated antibody, HRP goat anti-human IgG Fc, OD650.

Test [4] addresses T1, recombinant human FcRn (Sino Biological). Nature of the test: ELISA at pH 6.0: plate coated with recombinant human FcRn, antibody titrated, HRP goat anti-human Fc, OD650. This is another data set of the same source.
The target in test [5] is T4, recombinant human soluble ECD of CD64/FCGRIA (human, UniProt P12314 16-292).
T4 construct: extracellular domain; also called FcγRI
Nature of the test: ELISA: plate coated with recombinant human CD64/FCGRIA ECD, antibody titrated, HRP goat anti-human Fc, OD650.

Test [6] deals with T3, FcγRIIa (CD32) (Sino Biological, cat …). Nature of the test: Sandwich ELISA: anti-His capture of His-tagged FcγRIIA mixed with titrated antibody, HRP goat anti-human IgG Fc, OD650. The source holds these as a separate data set.
In test [7] the target is T2, human C1q (sigma Cat #C1740). Nature of the test: ELISA: plate coated with antibody at 1 ug/ml, human C1q titrated 0.625-40 ug/ml, rabbit anti-human C1q then HRP goat anti-rabbit, OD650. This is another data set of the same source.

The record followed here is US20230165967A1 (TAE LIFE SCIENCES, published 2023).

Read-outs that look alike come from different tables or passages of the source.

T2 sequence (P02745 23-245 limits assumed, chain 1 of 3): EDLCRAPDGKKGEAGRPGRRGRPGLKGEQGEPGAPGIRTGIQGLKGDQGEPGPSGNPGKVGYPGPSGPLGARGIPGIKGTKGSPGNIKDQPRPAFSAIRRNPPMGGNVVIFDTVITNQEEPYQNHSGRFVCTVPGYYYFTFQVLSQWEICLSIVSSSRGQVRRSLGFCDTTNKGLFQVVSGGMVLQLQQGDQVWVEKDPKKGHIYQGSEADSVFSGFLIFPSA
T2 sequence (P02746 28-253 limits assumed, chain 2 of 3, further chain): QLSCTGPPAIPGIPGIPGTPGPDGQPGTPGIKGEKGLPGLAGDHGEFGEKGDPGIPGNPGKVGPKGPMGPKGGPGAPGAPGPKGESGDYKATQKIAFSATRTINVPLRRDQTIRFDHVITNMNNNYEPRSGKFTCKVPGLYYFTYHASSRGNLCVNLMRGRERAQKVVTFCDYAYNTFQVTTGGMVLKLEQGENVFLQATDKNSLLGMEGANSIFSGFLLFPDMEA
T2 sequence (P02747 29-245 limits assumed, chain 3 of 3, further chain): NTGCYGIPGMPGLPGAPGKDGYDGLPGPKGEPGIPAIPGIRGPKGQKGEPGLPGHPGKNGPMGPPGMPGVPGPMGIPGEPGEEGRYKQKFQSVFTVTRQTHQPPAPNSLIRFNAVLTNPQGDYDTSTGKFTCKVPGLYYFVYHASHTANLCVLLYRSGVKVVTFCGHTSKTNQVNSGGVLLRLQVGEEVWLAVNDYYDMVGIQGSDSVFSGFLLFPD
T1 sequence (P55899 24-297 limits assumed, chain 1 of 2): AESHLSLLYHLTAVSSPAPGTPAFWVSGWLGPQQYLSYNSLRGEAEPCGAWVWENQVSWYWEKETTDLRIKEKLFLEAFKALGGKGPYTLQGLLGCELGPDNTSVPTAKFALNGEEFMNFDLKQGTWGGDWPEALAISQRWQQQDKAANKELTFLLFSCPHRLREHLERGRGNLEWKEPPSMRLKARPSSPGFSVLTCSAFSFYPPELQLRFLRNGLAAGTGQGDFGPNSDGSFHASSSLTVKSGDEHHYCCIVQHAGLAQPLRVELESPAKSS
T1 sequence (P61769 21-119 limits assumed, chain 2 of 2, further chain): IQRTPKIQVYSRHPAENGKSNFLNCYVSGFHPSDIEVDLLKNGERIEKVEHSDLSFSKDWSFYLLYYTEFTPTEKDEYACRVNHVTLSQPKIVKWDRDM
T4 sequence (P12314 16-292): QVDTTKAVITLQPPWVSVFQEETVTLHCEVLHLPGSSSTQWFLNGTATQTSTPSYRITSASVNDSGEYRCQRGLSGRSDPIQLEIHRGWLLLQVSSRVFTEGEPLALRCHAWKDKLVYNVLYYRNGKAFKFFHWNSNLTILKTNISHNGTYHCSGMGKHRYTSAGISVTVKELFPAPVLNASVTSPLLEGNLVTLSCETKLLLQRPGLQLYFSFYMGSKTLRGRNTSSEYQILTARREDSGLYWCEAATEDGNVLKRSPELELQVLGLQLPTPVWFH

B1: Anti-EGFR Ab No. 1 L328C (antibody, human IgG1, kappa)
heavy: QVQLQESGPGLVKPSETLSLTCTVSGGSVSSGDYYWTWIRQSPGKGLEWIGHIYYSGNTNYNPSLKSRLTISIDTSKTQFSLKLSSVTAADTAIYYCVRDRVTGAFDIWGQGTMVTVSSASTKGPSVFPLAPSSKSTSGGTAALGCLVKDYFPEPVTVSWNSGALTSGVHTFPAVLQSSGLYSLSSVVTVPSSSLGTQTYICNVNHKPSNTKVDKKV[human IgG1 Fc with L328C (EU numbers) not written out]
light: DIQMTQSPSSLSASVGDRVTITCQASQDISNYLNWYQQKPGKAPKLLIYDASNLETGVPSRFSGSGSGTDFTFTISSLQPEDIATYFCQHFDHLPLAFGGGTKVEIKRTVAAPSVFIFPPSDEQLKSGTASVVCLLNNFYPREAKVQWKVDNALQSGNSQESVTEQDSKDSTYSLSSTLTLSKADYEKHKVYACEVTHQGLSSPVTKSFNRGEC
notes: Fc variant; wild-type light chain; also called Anti-EGFR Mab No. 1 single mutant; single mutation L328C
Turning to B1, the binding result in test [1], in test [2] and in test [3] was “binds” throughout.

B2: Anti-CDH3 Ab L328C (antibody, human IgG1, kappa)
heavy: QVQLQQSGPGLVKPSQTLSLTCAISGDSVSSQSAAWNWIRQSPSRGLEWLGRIYYRSKWYNDYALSVKSRITINPDTSKNQFSLQLNSVTPEDTAVYYCARGEGYGREGFAIWGQGTLVTVSSASTKGPSVFPLAPSSKSTSGGTAALGCLVKDYFPEPVTVSWNSGALTSGVHTFPAVLQSSGLYSLSSVVTVPSSSLGTQTYICNVNHKPSNTKVDKRV[human IgG1 Fc with L328C (EU numbers) not written out]
light: DIQMTQSPSSLSASVGDRVTITCRASQTISNTLAWYQQKPGKAPKLLIYAASNLQSGVPSRFSGSGSGTDFTLTISSLQPEDFATYYCQQYLSWFTFGQGTKVEIKRTVAAPSVFIFPPSDEQLKSGTASVVCLLNNFYPREAKVQWKVDNALQSGNSQESVTEQDSKDSTYSLSSTLTLSKADYEKHKVYACEVTHQGLSSPVTKSFNRGEC
notes: Fc variant; wild-type light chain; also called Anti-CDH3 Mab single mutant; single mutation L328C
Consider B2, for which the binding result in test [4], in test [6] and in test [7] was “binds” throughout. In test [5], the “EC50 (read off the curve)” value was ~0.2 µg/mL.
